Assay results published in the supplement of paper PMC8728848.
This is one part of the list.

Columns and labels:
Assay in all cases: glycan array binding signal (z-score within array); higher = stronger binding
Settings in all cases: glycan notation: IUPAC condensed, linker removed
[1] = target: Neu5Ac(a2-3)Gal6S(b1-4)GlcNAc
In short: (§1)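 Negative Z-scores can be read as non-binding. The Z-score is calculated within each array and then averaged across arrays of one protein sequence at different concentrations or buffers and across linkers. Arrays, 3228 in all, were curated from the Consortium for Functional Glycomics database and kept only where the protein sequence was available.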

[2] = target: Neu5Ac(a2-3)Gal6S(b1-4)[Fuc(a1-3)]GlcNAc
In short: as §1

Neu5Ac(a2-3)GalNAc = target: Neu5Ac(a2-3)GalNAc
In short: as §1

[3] = target: Neu5Ac(a2-3)GalNAc(b1-4)GlcNAc
In short: as §1

[4] = target: Neu5Ac(a2-3)[GalNAc(b1-4)]Gal(b1-4)Glc
In short: as §1

[5] = target: Neu5Ac(a2-3)[GalNAc(b1-4)]Gal(b1-4)GlcNAc
In short: as §1

[6] = target: Neu5Ac(a2-3)[GalNAc(b1-4)]Gal(b1-4)GlcNAc(b1-3)GalNAc
In short: as §1

[7] = target: Neu5Ac(a2-3)[Neu5Ac(a2-6)]GalNAc
In short: as §1

Neu5Ac(a2-6)Gal = target: Neu5Ac(a2-6)Gal
In short: as §1

[8] = target: Neu5Ac(a2-6)Gal(b1-3)GlcNAc(b1-3)[Gal(b1-4)GlcNAc(b1-6)]Gal(b1-4)Glc
In short: as §1

Neu5Ac(a2-6)Gal(b1-4)Glc = target: Neu5Ac(a2-6)Gal(b1-4)Glc
In short: as §1

[9] = target: Neu5Ac(a2-6)Gal(b1-4)GlcNAc
In short: as §1

[10] = target: Neu5Ac(a2-6)Gal(b1-4)GlcNAc(b1-2)Man
In short: as §1

[11] = target: Neu5Ac(a2-6)Gal(b1-4)GlcNAc(b1-2)Man(a1-3)Man(b1-4)GlcNAc(b1-4)GlcNAc
In short: as §1

[12] = target: Neu5Ac(a2-6)Gal(b1-4)GlcNAc(b1-2)Man(a1-3)[Gal(b1-4)GlcNAc(b1-2)Man(a1-6)]Man(b1-4)GlcNAc(b1-4)GlcNAc
In short: as §1

[13] = target: Neu5Ac(a2-6)Gal(b1-4)GlcNAc(b1-2)Man(a1-3)[GlcNAc(b1-2)Man(a1-6)]Man(b1-4)GlcNAc(b1-4)GlcNAc
In short: as §1

[14] = target: Neu5Ac(a2-6)Gal(b1-4)GlcNAc(b1-2)Man(a1-3)[GlcNAc(b1-2)Man(b1-4)GlcNAc(b1-2)Man(a1-6)]Man(b1-4)GlcNAc(b1-4)GlcNAc
In short: as §1

[15] = target: Neu5Ac(a2-6)Gal(b1-4)GlcNAc(b1-2)Man(a1-3)[GlcNAc(b1-4)][Neu5Ac(a2-6)Gal(b1-4)GlcNAc(b1-2)Man(a1-6)]Man(b1-4)GlcNAc(b1-4)GlcNAc
In short: as §1

[16] = target: Neu5Ac(a2-6)Gal(b1-4)GlcNAc(b1-2)Man(a1-3)[Man(a1-6)]Man(b1-4)GlcNAc(b1-4)GlcNAc
In short: as §1

[17] = target: Neu5Ac(a2-6)Gal(b1-4)GlcNAc(b1-2)Man(a1-3)[Neu5Ac(a2-3)Gal(b1-4)GlcNAc(b1-2)Man(a1-6)]Man(b1-4)GlcNAc(b1-4)GlcNAc
In short: as §1

[18] = target: Neu5Ac(a2-6)Gal(b1-4)GlcNAc(b1-2)Man(a1-3)[Neu5Ac(a2-6)Gal(b1-4)GlcNAc(b1-2)Man(a1-6)]Man(b1-4)GlcNAc(b1-4)GlcNAc
In short: as §1

[19] = target: Neu5Ac(a2-6)Gal(b1-4)GlcNAc(b1-2)Man(a1-3)[Neu5Ac(a2-6)Gal(b1-4)GlcNAc(b1-2)Man(a1-6)]Man(b1-4)GlcNAc(b1-4)[Fuc(a1-6)]GlcNAc
In short: as §1

[20] = target: Neu5Ac(a2-6)Gal(b1-4)GlcNAc(b1-2)Man(a1-6)Man(b1-4)GlcNAc(b1-4)GlcNAc
In short: as §1

[21] = target: Neu5Ac(a2-6)Gal(b1-4)GlcNAc(b1-2)Man(a1-6)[Gal(b1-4)GlcNAc(b1-2)Man(a1-3)]Man(b1-4)GlcNAc(b1-4)GlcNAc
In short: as §1

[22] = target: Neu5Ac(a2-6)Gal(b1-4)GlcNAc(b1-2)Man(a1-6)[GlcNAc(b1-2)Man(a1-3)]Man(b1-4)GlcNAc(b1-4)GlcNAc
In short: as §1

[23] = target: Neu5Ac(a2-6)Gal(b1-4)GlcNAc(b1-2)Man(a1-6)[Man(a1-3)]Man(b1-4)GlcNAc(b1-4)GlcNAc
In short: as §1

[24] = target: Neu5Ac(a2-6)Gal(b1-4)GlcNAc(b1-2)[Neu5Ac(a2-6)Gal(b1-4)GlcNAc(b1-4)]Man(a1-3)[GlcNAc(b1-4)][Neu5Ac(a2-6)Gal(b1-4)GlcNAc(b1-2)[Neu5Ac(a2-6)Gal(b1-4)GlcNAc(b1-6)]Man(a1-6)]Man(b1-4)GlcNAc(b1-4)GlcNAc
In short: as §1

[25] = target: Neu5Ac(a2-6)Gal(b1-4)GlcNAc(b1-2)[Neu5Ac(a2-6)Gal(b1-4)GlcNAc(b1-4)]Man(a1-3)[GlcNAc(b1-4)][Neu5Ac(a2-6)Gal(b1-4)GlcNAc(b1-4)Man(a1-6)]Man(b1-4)GlcNAc(b1-4)GlcNAc
In short: as §1

[26] = target: Neu5Ac(a2-6)Gal(b1-4)GlcNAc(b1-2)[Neu5Ac(a2-6)Gal(b1-4)GlcNAc(b1-6)]Man(a1-6)[Neu5Ac(a2-6)Gal(b1-4)GlcNAc(b1-2)Man(a1-3)][GlcNAc(b1-4)]Man(b1-4)GlcNAc(b1-4)GlcNAc
In short: as §1

[27] = target: Neu5Ac(a2-6)Gal(b1-4)GlcNAc(b1-3)Gal(b1-3)GlcNAc
In short: as §1

[28] = target: Neu5Ac(a2-6)Gal(b1-4)GlcNAc(b1-3)Gal(b1-4)GlcNAc
In short: as §1

[29] = target: Neu5Ac(a2-6)Gal(b1-4)GlcNAc(b1-3)Gal(b1-4)GlcNAc(b1-2)Man(a1-3)[Neu5Ac(a2-6)Gal(b1-4)GlcNAc(b1-3)Gal(b1-4)GlcNAc(b1-2)Man(a1-6)]GalNAc
In short: as §1

[30] = target: Neu5Ac(a2-6)Gal(b1-4)GlcNAc(b1-3)Gal(b1-4)GlcNAc(b1-3)Gal(b1-4)GlcNAc
In short: as §1

[31] = target: Neu5Ac(a2-6)Gal(b1-4)GlcNAc(b1-3)Gal(b1-4)GlcNAc(b1-3)Gal(b1-4)GlcNAc(b1-2)Man(a1-3)[Neu5Ac(a2-6)Gal(b1-4)GlcNAc(b1-3)Gal(b1-4)GlcNAc(b1-3)Gal(b1-4)GlcNAc(b1-2)Man(a1-6)]GalNAc
In short: as §1

[32] = target: Neu5Ac(a2-6)Gal(b1-4)GlcNAc(b1-3)Gal(b1-4)GlcNAc(b1-3)GalNAc
In short: as §1

[33] = target: Neu5Ac(a2-6)Gal(b1-4)GlcNAc(b1-3)Gal(b1-4)GlcNAc(b1-3)[Neu5Ac(a2-6)Gal(b1-4)GlcNAc(b1-3)Gal(b1-4)GlcNAc(b1-6)]GalNAc
In short: as §1

[34] = target: Neu5Ac(a2-6)Gal(b1-4)GlcNAc(b1-3)Gal(b1-4)GlcNAc(b1-6)[Gal(b1-3)]GalNAc
In short: as §1

[35] = target: Neu5Ac(a2-6)Gal(b1-4)GlcNAc(b1-3)Gal(b1-4)[Fuc(a1-3)]GlcNAc(b1-3)Gal(b1-4)[Fuc(a1-3)]GlcNAc
In short: as §1

[36] = target: Neu5Ac(a2-6)Gal(b1-4)GlcNAc(b1-3)GalNAc
In short: as §1

[37] = target: Neu5Ac(a2-6)Gal(b1-4)GlcNAc(b1-3)[Neu5Ac(a2-6)Gal(b1-4)GlcNAc(b1-6)]GalNAc
In short: as §1

[38] = target: Neu5Ac(a2-6)Gal(b1-4)GlcNAc(b1-6)GalNAc
In short: as §1

B1: EEA (Euonymus europaeus) (protein)
chain: MASTIIATGPTYRVYCRAAPNYNMIVGKGVAFLAPIDETNELQYWYKDDTYSYIKDEAGLPAFSLVNKATGLTLKHSNHHPVPVKLVTYNPNVVDESVLWSQADDRGDGYSAIRSLTNPASHLEAAPLNDWSYNGAIIMGGVWIDAYNQQWKIEPHTG
[1]
  glycan array binding signal (z-score): -0.212
[2]
  glycan array binding signal (z-score): -0.226
Neu5Ac(a2-3)GalNAc
  glycan array binding signal (z-score): -0.268
[3]
  glycan array binding signal (z-score): -0.262
[4]
  glycan array binding signal (z-score): -0.207
[5]
  glycan array binding signal (z-score): -0.212
[6]
  glycan array binding signal (z-score): 0.46
[7]
  glycan array binding signal (z-score): -0.34
Neu5Ac(a2-6)Gal
  glycan array binding signal (z-score): -0.205
[8]
  glycan array binding signal (z-score): -0.232
Neu5Ac(a2-6)Gal(b1-4)Glc
  glycan array binding signal (z-score): -0.176
[9]
  glycan array binding signal (z-score): -0.16
[10]
  glycan array binding signal (z-score): -0.13
[11]
  glycan array binding signal (z-score): -0.169
[12]
  glycan array binding signal (z-score): -0.163
[13]
  glycan array binding signal (z-score): -0.226
[14]
  glycan array binding signal (z-score): -0.242
[15]
  glycan array binding signal (z-score): -0.2
[16]
  glycan array binding signal (z-score): -0.235
[17]
  glycan array binding signal (z-score): -0.105
[18]
  glycan array binding signal (z-score): -0.208
[19]
  glycan array binding signal (z-score): -0.102
[20]
  glycan array binding signal (z-score): -0.263
[21]
  glycan array binding signal (z-score): -0.233
[22]
  glycan array binding signal (z-score): -0.206
[23]
  glycan array binding signal (z-score): -0.228
[24]
  glycan array binding signal (z-score): -0.222
[25]
  glycan array binding signal (z-score): -0.246
[26]
  glycan array binding signal (z-score): -0.179
[27]
  glycan array binding signal (z-score): -0.261
[28]
  glycan array binding signal (z-score): -0.212
[29]
  glycan array binding signal (z-score): -0.005
[30]
  glycan array binding signal (z-score): -0.223
[31]
  glycan array binding signal (z-score): 0.479
[32]
  glycan array binding signal (z-score): -0.215
[33]
  glycan array binding signal (z-score): 0.574
[34]
  glycan array binding signal (z-score): 0.132
[35]
  glycan array binding signal (z-score): -0.235
[36]
  glycan array binding signal (z-score): -0.169
[37]
  glycan array binding signal (z-score): -0.086
[38]
  glycan array binding signal (z-score): -0.211
